# Assay results reported in ChEMBL document CHEMBL4888484, “Replenishing the malaria drug discovery pipeline: Screening and hit evaluation of the MMV Hit Generation Library 1 (HGL1) against asexual blood stage Plasmodium falciparum ,using a nano luciferase reporter read-out” (2022).
# Hit rate of the full screen: of about 150,000 compounds, about 540 (0.36%) showed an effect of 50% or more. The list shows a part of the results.
# Test system: Plasmodium falciparum
# Experiment: Primary screen in NF54 nanoGlo assay, in single point, at 2uM, 72h; a lower Z score goes with more inhibition
# Type: functional, Erythrocyte
# Conditions: timepoint 72 hour
SMILES,% Inhibition [%],Z score
CCCN1C(=O)c2ccccc2N2C(=O)CC[C@@]12C(=O)Nc1ccc(OC)cc1,88,-16.69
Cc1ncsc1C(=O)N1CCOC[C@@H]1CC(=O)c1ccccc1,-7,1.02
Cn1cc(CN2CCc3[nH]ncc3C2)c(NC(=O)OC(C)(C)C)n1,-6,1.24
Cn1cc(C(=O)N(Cc2c(F)cccc2F)C2CC2)cn1,1,-0.12
CCOc1ccc(-c2noc(-c3cn(-c4ccc(OC)c(OC)c4)c(=O)c4ccccc34)n2)cc1OC,15,-1.78
Cc1cccnc1Cn1cnc2c(=O)[nH]c(N[C@@H](C)c3ccccc3)nc(=O)c21,-5,0.44
CCn1nc(-n2cnnc2)c(NC(=O)c2cc(Br)ccc2OC)c1C,30,-4
O=C1NC[C@H]2O[C@H](CCOc3ccccc3C(=O)N3CCN(Cc4ccc(F)c(F)c4)C[C@@H]13)CC[C@H]2n1cc(CN2CCOCC2)nn1,-2,0.34
O=C(NC1CCC(CC2CCC(NC(=O)c3cccnc3)CC2)CC1)c1cccnc1 (stereo unspecified),-26,3
COc1ccc(NC(=O)N2CCCN(c3nc4cc(F)ccc4n4cccc34)CC2)c(OC)c1,12,-2.09
OC1Cc2ccccc2C1NCc1cccnc1 (stereo unspecified),4,-0.61
Cc1cccc(OC2CCN(c3cc(N)ncn3)CC2)c1,-11,1.33
COc1cc(F)c(CN2[C@@H]3CC[C@H]2CNC(=O)C3)cc1OC,-15,2.71
FC(F)[C@@H]1CN(c2nnnn2-c2ccccc2)CCO1,-15,2.23
CC1=C(c2ccc(C)c(C)c2)S(=O)(=O)N=C1N1CCC(NC(=O)C2CCCC2)CC1,-11,2.17
CC(=O)N1CCOC[C@H]1c1nc(Cc2cccc3cccnc23)no1,-6,1.11
CC(C)Oc1cccc(CCNC(=O)N2CCCC3(CCOCC3)C2)c1,-7,0.62
CC(C)(C)c1ncnc(N)c1Br,1,-0.2
COc1cc(C)ccc1OCCC(=O)NCc1ccnn1C,-4,0.53
Cc1ccc([C@@H]2C=C(c3ccc(-c4ccccc4)cc3)Nc3nnnn32)cc1,1,-0.1
Cn1cc(N2C[C@@H](NC(=O)OC(C)(C)C)CC2=O)cn1,6,-1.19
O=C(NCc1cccs1)NC[C@H](O)c1ccsc1,-14,2.36
CCc1nn(C)c(Cl)c1CNCC1CN(C(=O)c2ccccc2)C2CCN1C2 (stereo unspecified),0,0.04
COc1cc(C(=O)Nc2cccnc2)ncn1,-8,1.37
CCCN(C[C@H]1CCCCO1)C(=O)c1cncc(Br)c1,-16,3.02
Cc1ccc(-n2nnc(C(=O)Nc3ccc4c(c3)OCCO4)c2-c2cccnc2)cc1C,-1,0.14
CCOc1cccc(C(=O)N2C[C@@H](CN3C[C@@H](C)O[C@@H](C)C3)[C@@H](CO)C2)c1,-10,1.27

SMILES,% Inhibition [%],Z score
Cc1cc(-c2cc(F)cc3cccnc23)c(O)nc1C,-1,0.17
Cc1ccc(C)c(-c2cc(C(=O)O)cc(S(=O)(=O)N3CCN(C)CC3)c2)c1,-3,0.4
CC(=O)NC1CCC(NCC2(c3c(F)cccc3F)CC2)CC1 (stereo unspecified),-1,0.06
COc1ccc(-c2ccc(N3CCN(C(=O)CN(Cc4ccc(F)cc4)C(=O)c4ccccc4F)CC3)nn2)cc1OC,-8,1.39
O=C(NCC1OCCc2sccc21)C1CCN(C2CCCCC2)C1 (stereo unspecified),-2,0.19
O=C(Nc1cncc(F)c1)c1ccsc1,-12,1.89
CC1(C)CCCN(CCNCc2cc(C(N)=O)cs2)C1,-9,0.91
Cn1ccn2ncc(C(=O)Nc3ccc(N4CCCC4)c4ncccc34)c12,-17,1.86
C1=C[C@@H]2C[C@H]1C[C@@H]2c1nc(C2CC2)nn1-c1ccccn1,-12,1.55
CCN(CC)C(=O)CN1C(=O)NC2(CCCCCCC2)C1=O,-9,1.15
CC1(C)CN(C(=O)[C@@H]2CCCc3nccn32)CCN1CCO,2,-0.29
CCNC(=O)N1CC(S(=O)(=O)c2ccc(F)cc2)C1,-4,0.8
CC(C)Oc1ccccc1CN1C[C@H](COc2cccnc2)C2(CCOCC2)C1,-9,1.18
CCN(c1ccsc1C(=O)NCc1ccccc1Cl)S(=O)(=O)c1ccccc1,-2,0.25
Cc1noc(C)c1CCC(=O)N1CC(Oc2ccccc2Cl)C1,-7,1.34
Cc1nc([C@@H](O)Cc2ccccc2)n(-c2ncccc2C)n1,-13,1.82
CCC1(CNC(=O)NCCCN2CCCC2=O)CCCC1,0,0.04
O=C1c2ccccc2N[C@H](c2ccccc2Br)N1CCCN1CCOCC1,-13,2.4
CCS(=O)(=O)N[C@H]1COCC[C@@H]1Oc1ccccn1,-1,0.3
Cc1c(NC(=O)N2CCC[C@H](n3nccc3C(F)(F)F)C2)c(=O)n(-c2ccccc2)n1C,-6,0.97
CCCc1noc(-c2ccc(-c3ccc(CC)cc3)cc2)n1,-11,2.13
O=C(c1ccc(-n2cccn2)nc1)N1CCN(c2cccc(Cl)c2)CC1,-14,1.66
CCc1csc(CCNC(=O)C2(COC)CCC2)n1,-5,0.79
O=C(c1cccc(S(=O)(=O)NC[C@H](O)CO)c1)N1CCC2(CCCC2)C1,-19,1.84
Cc1cccc(CC(=O)Nc2cnn(-c3cccc(C(=O)NCc4ccc5nonc5c4)c3)c2)c1,-4,0.49
CCC(C)N1C(=O)CCC1C(=O)N1CCN(c2ccc(F)cc2)CC1 (stereo unspecified),-12,2.1
